In the supplement of paper PMC7726561:
In all, about 1,100 sequences were measured (“thermal melting temperature (Tm) of peptide-HLA complex”: median about 58, lowest 2% from about 42 on). The list shows a part of the results.

target: HLA-A*02:01; assay: thermal melting temperature (Tm) of peptide-HLA complex; higher = more thermostable pHLA complex; conditions: C1R-A*02:01
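Note: cell lysates heated 10 min at 37–73 °C, remaining pHLA pulled down with pan-class I antibody, peptides quantified by DIA-MS versus 37 °C, Tm where half the complex is lost.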

| Sequence | thermal melting temperature [°C] |
| --- | --- |
| RLYPEGLAQL | 56.9 |
| FLAELPGSLSL | 49.3 |
| AIQEQITRV | 47.9 |
| FLSDSSVRI | 47.3 |
| VMGKIFAV | 60 |
| FLSQRETLL | 61.2 |
| RLTDYVAFL | 63.4 |
| FLHDNMVEI | 60.6 |
| GLKNGVPAV | 56 |
| AALDFKLAAA | 46.4 |
| NLDPAVHEV | 55.3 |
| SQWEDIHVV | 58.3 |
| ALNPADITV | 58.7 |
| IMDDKSLNI | 44.9 |
| KLLDVVHPA | 62.3 |
| TIAEGLTLAQV | 55.6 |
| SLAARAIAV | 57.9 |
| FLQEEPGQLL | 57.5 |
| TLWEIAKAEV | 63.8 |

| Sequence | thermal melting temperature [°C] |
| --- | --- |
| ALMYESEKV | 51.7 |
| ALIEDEHNL | 45.2 |
| KVLEPSETLVV | 56 |
| IIADMDKWTV | 54.6 |
| YIQDVYWNV | 55.6 |
| KLPEKWESV | 59.9 |
| YLSEDVFQHAV | 54.8 |
| SSVEVRSDWEV | 42.6 |
| HLLGEGAFAQV | 58.8 |
| IMAQLPQEQKA | 56.3 |
| RVIGTLEEV | 57.6 |
| GLQEYVEAV | 64.2 |
| FMLPDPQNI | 53.5 |
| LLYDGKLSSA | 59.4 |
| YVFPGVTRL | 57.6 |
| TLFPGKVHSL | 55.8 |
| ALNELLQHV | 60 |
| YILEGEPGKV | 54.5 |
| FVYTETVHV | 47.2 |

| Sequence | thermal melting temperature [°C] |
| --- | --- |
| KIADFGWSV | 62.2 |
| SLAGGLDDMKA | 45.1 |
| SLADLYFRA | 63.1 |
| KILEETLYV | 59.9 |
| LLPSEGIVHL | 41.3 |
| ILDQKINEV | 60 |
| TLIRSDAVALV | 57.6 |
| TLADLVHHV | 62.2 |
| SVAEGRALMSV | 56.8 |
| FLYDTHQNL | 56.7 |
| ALNEKLVNL | 57.9 |
| TVMDEIHTV | 57.6 |
| YLLQEPPRTV | 62.2 |
| YQLEIPENFTT | 58.3 |
| VLLPDERTISL | 52 |
| RLGGIPVGV | 55.9 |
| VINDLTYHV | 59.9 |
| SLLPTEQPRL | 58.1 |
